Measured values from PubChem BioAssay AID488969 (Vanderbilt High Throughput Screening Facility, 2010).
Over roughly 110,000 compounds, “z-score” has its median near -0.1; the highest 2% begin near 2. Some of the results follow. The source made the active and inactive calls.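 Rule for the calls: active = z-score in the third read window above 3 or below -3; inactive = the rest.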

The compounds below were run against Metabotropic glutamate receptor 8 (Rattus norvegicus) (UniProt P70579) (assay: mGluR8 Gi/Go-coupled signaling modulation – cell-based, rat, thallium flux, HTS, primary screen (AID 488969)). Details: HEK293 rat mGluR8, GIRK (G protein-gated inwardly rectifying potassium channel) thallium flux, FluoZin2; at 10 µM; stronger effect = higher value; submaximal glutamate (EC20) added with thallium.
Sequence of UniProt P70579 (P70579 whole entry, looked up): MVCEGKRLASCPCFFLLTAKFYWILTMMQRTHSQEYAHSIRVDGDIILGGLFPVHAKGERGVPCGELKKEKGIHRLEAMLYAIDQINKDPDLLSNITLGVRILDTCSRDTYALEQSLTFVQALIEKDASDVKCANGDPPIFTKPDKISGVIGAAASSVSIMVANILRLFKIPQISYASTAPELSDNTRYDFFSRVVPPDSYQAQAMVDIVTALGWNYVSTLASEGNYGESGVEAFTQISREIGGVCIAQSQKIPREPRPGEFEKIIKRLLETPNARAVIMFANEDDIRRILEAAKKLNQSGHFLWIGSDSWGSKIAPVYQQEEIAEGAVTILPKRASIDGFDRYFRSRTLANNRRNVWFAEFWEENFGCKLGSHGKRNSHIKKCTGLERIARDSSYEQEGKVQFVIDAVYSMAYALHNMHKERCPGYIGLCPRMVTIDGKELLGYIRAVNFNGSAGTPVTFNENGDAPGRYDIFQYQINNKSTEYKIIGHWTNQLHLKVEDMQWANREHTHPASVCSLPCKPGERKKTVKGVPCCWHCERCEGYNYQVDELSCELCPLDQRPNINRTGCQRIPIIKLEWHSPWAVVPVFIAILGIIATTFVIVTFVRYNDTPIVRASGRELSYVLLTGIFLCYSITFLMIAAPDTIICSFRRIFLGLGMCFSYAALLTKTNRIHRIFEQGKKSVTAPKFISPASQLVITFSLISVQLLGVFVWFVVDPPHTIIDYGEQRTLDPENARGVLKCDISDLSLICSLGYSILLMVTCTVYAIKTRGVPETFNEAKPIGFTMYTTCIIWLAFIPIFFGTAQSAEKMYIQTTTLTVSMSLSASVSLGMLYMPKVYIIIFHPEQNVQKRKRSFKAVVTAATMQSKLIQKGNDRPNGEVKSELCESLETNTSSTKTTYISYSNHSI

Row | Structure (SMILES) | z-score
1 | CCCC12CN3CCN(CC(C3)/C1=N\NC(=O)c1ccc(C(C)(C)C)cc1)C2 | -0.345
2 | O=c1c2ccccc2cnn1Cc1n[nH]c(=S)n1-c1ccc(Cl)cc1 | -0.112
3 | COC(=O)C1=C(C)N(c2ccc(C)c(C)c2)/C(=C/c2cccs2)C1=O | -0.788
4 | NS(=O)(=O)c1ccc(CCNc2ncnc3c2c(-c2ccccc2)cn3-c2ccc(F)cc2)cc1 | -0.435
5 | Cc1cccc(C(=O)Oc2ccccc2C2C[C@]3(C)CC(=O)NC3N2C(=O)c2cccc(C)c2)c1 (some centres undefined) | -0.253
6 | COc1cc(-c2nnc(-c3ccc(S(=O)(=O)c4ccccc4)cc3)o2)cc(OC)c1OC | -0.312
7 | CC1(O)N(Cc2ccccc2)C(=O)OC12CCCCC2 (centres undefined) | -0.284
8 | O=C(Oc1ccccc1N1C(=O)C2CCCCC2C1=O)c1ccccc1 (centres undefined) | -0.131
9 | CSc1nnc(-c2cccc(C)c2)n1N | -0.0746
10 | CCOC(=O)CSc1nnc(CCc2nc3ccccc3[nH]2)n1C | -0.105
11 | O=C(O)c1ccc2nc(-c3ccccc3)c(-c3ccccc3)nc2c1 | -0.169
12 | CCOC(=O)c1cccc(-n2c(C)nc3ccccc3c2=O)c1 | -0.552
13 | Cc1ccc2cccc(Oc3ccc([N+](=O)[O-])cc3[N+](=O)[O-])c2n1 | -0.181
14 | Cc1cc(C)n(-c2nnc(NC34CC5CC(CC(C5)C3)C4)nn2)n1 | 0.433
15 | Cc1cc(NCCCN2CCOCC2)n2ncc(-c3ccc(Cl)cc3)c2n1 | 0.369
16 | CCOC(=O)C(NC(=O)CC)(Nc1ccc(S(=O)(=O)Nc2onc(C)c2C)cc1)C(F)(F)F (centres undefined) | 0.0428
17 | C/C(=N\NC(=O)c1nn(C)cc1Br)c1cccc(NC(=O)C(C)(C)C)c1 | -0.156
18 | CC(C)OC(=O)CSc1nnc(-c2cccnc2)n1Cc1ccccc1 | -0.0914
19 | CCOC(=O)c1cc(-c2ccc(OC)cc2)nc2c1c(C)nn2CCC#N | -0.93
20 | COc1ccc(-c2nnc3n(CCc4ccccc4)c(=O)c4ccccc4n23)cc1OC | 0.848
21 | COc1ccc(Nc2nc(C)nc3c2nnn3Cc2ccccc2)cc1OC | -1.28
22 | Cc1ccc(NC(=O)C2CC(=O)N/C(=N/N=C/c3ccco3)S2)cc1C (centres undefined) | -0.259

Row | Structure (SMILES) | z-score
23 | O=C(C/C=N/OCc1c(Cl)cccc1Cl)c1ccccc1 | -0.2
24 | Clc1ccc(OCCCc2nc(-c3ccncc3)no2)c(Cl)c1 | 0.544
25 | CC(=O)N(C)C1(c2nnnn2CCOC(=O)Nc2ccc(Cl)cc2)CCCCC1 | -0.293
26 | OC1CN=C2CCCc3c2n(c2ccc(Cl)cc32)C1 (centres undefined) | -0.735
27 | CN1CCCCc2c1nc1c(c2N)CCCC1 | 0.627
28 | CCOC(=O)c1c(NC(=O)c2cc(CC(C)C)on2)sc(C(C)=O)c1C | 0.0495
29 | CC1CN(C(=S)NC(=O)c2ccco2)CC(C)O1 (centres undefined) | -0.326
30 | CCCCNC(=O)c1onc(CSc2cccc(OCC)c2)c1C(=O)O | -0.682
31 | Cc1ccc(NC(=O)NNC(=O)c2cccs2)cc1 | 0.53
32 | O=C1c2ccccc2C(=O)N1CCC(c1ccccc1)c1ccco1 (centres undefined) | -0.917
33 | COc1cc(C(=O)n2nc(C)cc2C)ccc1O | 0.857
34 | COc1ccc(CCNC(=O)CNCC2CCCO2)cc1OC (centres undefined) | 0.933
35 | COc1ccccc1OCC(=O)N1CCNC1=O | 0.0488
36 | O=C(Cn1c2ccccc2c(=O)c2ccccc21)N/N=C/c1ccc(N2CCCC2)c([N+](=O)[O-])c1 | -0.124
37 | Cc1ccc(NS(=O)(=O)c2ccc(OCC(=O)NCc3ccncc3)cc2)cc1 | -0.121
38 | COc1cc(OC)cc(C(=O)Nc2ccc(S(=O)(=O)N(C)C)cc2)c1 | -0.565
39 | c1ccc(CNc2c3c(nc4ncnn24)CCCC3)nc1 | 0.075
40 | COc1ccccc1C/C(N)=N/OC(=O)COc1ccc2ccccc2c1 | -0.0605
41 | N#Cc1ccc(-c2ccc(F)cc2)nc1SCC(=O)Nc1sc2c(c1C#N)CCC2 | 0.116
42 | Cc1ccc(-c2cc(C#N)c(=O)n(Cc3c(Cl)cccc3Cl)c2)cc1 | -0.0931
43 | COc1ccc(S(=O)(=O)Nc2cc([N+](=O)[O-])ccc2OC)cc1 | -0.0521
44 | CCCCOc1ccc(C(=O)Nc2ccc(N3CCN(C)CC3)cc2)cc1 | 0.256

Row | Structure (SMILES) | z-score
45 | Cc1ccc(-n2nc(C(=O)O)c3ccccc3c2=O)cc1C | -2.04
46 | CC(=O)Nc1cccc(OC(=O)c2ccoc2C)c1 | -0.306
47 | COC(=O)c1c(Oc2nc(OC)cc(OC)n2)cccc1Oc1nc(OC)cc(OC)n1 | -0.252
48 | O=C(Nc1ccccc1N1CCCCC1)c1ncoc1-c1ccc(F)cc1 | 0.16
49 | O=C(Nc1ccc(Cl)cc1)/C(=C/c1cccc(O)c1)c1nc2ccccc2s1 | -1.57
50 | Cc1ccccc1NC(=O)Cc1nnc(SCC(=O)N2CCN(c3ccccc3)CC2)n1C | -0.143
51 | COc1ccc(-c2nnc(SCC(=O)Nc3cc(C)on3)n2C)cc1OC | -0.484
52 | CN1c2ccccc2C(O)=C(C(=S)Nc2ccc(Cl)cc2)S1(=O)=O | 1.19
53 | O=C(CSCCN1C(=O)c2ccccc2C1=O)Nc1ccc2ccccc2c1 | -0.224
54 | O=C(NCC1OCCc2ccccc21)c1ccco1 (centres undefined) | 0.257
55 | CC1=C(C(=O)Nc2ccccc2Cl)C(c2ccc(N(C)C)cc2)NC(=O)N1 (centres undefined) | -0.0926
56 | Cc1ccc(SCC(=O)Nc2cccc(NC(=O)c3ccco3)c2)cc1 | -0.457
57 | CC(C)(C)C(=O)NC(=S)Nc1sc2c(c1C#N)CCCCC2 | -0.0826
58 | CCCC(=O)N1CCCC(c2nc(-c3cccs3)no2)C1 (centres undefined) | 0.068
59 | CCCOC(=O)c1c(NC(=O)CSc2nc(-c3ccco3)cc(C(F)(F)F)n2)sc(C(=O)OC)c1C | 0.188
60 | O=C1/C(=C/c2cccc3ccccc23)CCCc2ccccc21 | -0.0381
61 | O=C(CN1CCN(c2ccccc2)CC1)Nc1nnc(-c2ccccc2)s1 | 0.193
62 | Cc1nc2sc(-c3ccccc3)cc2c(=O)n1-n1cccc1 | 0.432
63 | COc1cc2c(cc1NC(=O)COC(=O)[C@@H](NS(=O)(=O)c1cccc(Cl)c1)C(C)C)oc1ccccc12 | -0.298
64 | Cc1occc1-c1nnc(SCC(=O)NCc2cccs2)n1CC1CCCO1 (centres undefined) | 0.641
65 | CCOc1ccc(C(=O)NCC(=O)OCc2c(F)cccc2Cl)cc1 | -0.282
66 | CSCC[C@H](NC(=O)C1CCN(S(=O)(=O)c2ccc(C)cc2)CC1)C(=O)NCC1CCCO1 (some centres undefined) | 0.57

Row | Structure (SMILES) | z-score
67 | COc1ccc(OC)c2sc(NC(=O)C3COc4ccccc4O3)nc12 (centres undefined) | 0.957
68 | CCOC(=O)c1sc2nc(NC(=O)C3CC3)sc2c1C | 0.658
69 | CCN1CCN(C(=O)CN(CCc2ccccc2)S(C)(=O)=O)CC1 | 0.37
70 | CN(C)C(=O)CSCc1c(Cl)cccc1Cl | 0.281
71 | CCOC(=O)c1c(N)sc2c(OC)c(Br)ccc12 | 0.484
72 | Cc1ccc(S(=O)(=O)/N=C(\c2ccc(F)cc2)n2c(C)nc3ccccc32)cc1 | -0.0726
73 | COc1ccc(-c2nsc3c(N4CCCC4)ncnc23)cc1 | -0.106
74 | COc1ccc(-c2cc(C(=O)Nc3sc4c(c3C#N)CCCC4)c3ccccc3n2)cc1 | 0.233
75 | CCn1c(NC(=O)c2cccs2)c(-c2cccs2)c(=O)c2ccccc21 | -0.0463
76 | COC(=O)C(C)Oc1ccc2c(-c3cccc([N+](=O)[O-])c3)cc(=O)oc2c1 (centres undefined) | -0.00225
77 | COCCOC(=O)C1=C(C)NC(=O)NC1c1c(F)cccc1Cl (centres undefined) | -0.498
78 | CCOP(=O)(OCC)C(O)c1cc(OC)c(OC)c(OC)c1 (centres undefined) | -0.164
79 | COc1ccc(OC)c2[nH]c(=O)c(CCNS(=O)(=O)c3ccc(Cl)cc3)cc12 | -0.132
80 | O=C(c1ccccc1)N1CCN(c2ncnc3c2cnn3-c2ccccc2)CC1 | -0.162
81 | CC1CCC(NC(=O)C2(C)CCC(=O)N2Cc2cccnc2)CC1 (centres undefined) | 0.0758
82 | CCOC(=O)c1c(NC(=O)COC)sc(C(C)=O)c1C | -0.116
83 | CSc1nc(C)cc(OCNC(=O)c2cccs2)n1 | -0.288
84 | C/C(=N\NC(=O)c1ccccc1O)c1c(O)cc(C)oc1=O | -0.19
85 | CCOc1ccc(NC(=O)CN(C)c2nnnn2-c2ccccc2)cc1OCC | -0.132
86 | CC(=O)N/C(=C/c1ccc(Cl)cc1)C(=O)NCCc1c[nH]c2ccccc12 | -0.192
87 | CC(C)(C)C(=O)NC1CCN(S(C)(=O)=O)CC1 | 0.136
88 | CNC(=O)c1sc(-c2cccnc2)nc1C | -0.118

Row | Structure (SMILES) | z-score
89 | CCC(C)NCCCOc1c(C)cc(C)cc1Br (centres undefined) | 0.308
90 | Cc1ccc2c(Cl)cc(Cl)c(OCC(=O)NCc3ccco3)c2n1 | active: 3.48
91 | Cc1ccc(NC(=O)COC(=O)CCc2c[nH]c3ccccc23)cc1[N+](=O)[O-] | 0.0343
92 | O=C(NC(NC(=S)Nc1ccc(Cl)c(Cl)c1)C(Cl)(Cl)Cl)c1ccco1 (centres undefined) | 0.0384
93 | CCc1c(C)sc(NC(=O)c2cc(-c3cc(OC)ccc3OC)on2)c1C#N | -1.03
94 | C[n+]1ccc(/C=C/c2ccc(Br)cc2)cc1 | 0.0384
95 | O=[N+]([O-])c1cc(-c2nnc(Nc3ccc(O)cc3)c3ccccc23)ccc1N1CCOCC1 | -0.799
96 | O=S(=O)(c1ccc(Oc2ccc(-c3nnco3)cc2)nc1)N1CCC(Cc2ccccc2)CC1 | 0.122
97 | Cc1ccc(C(=O)COc2ccccc2-c2ccccc2)cc1 | -0.229
98 | CC(C)Oc1ccc(N2CC(C(=O)Nc3ccc4c(c3)OCO4)CC2=O)cc1 (centres undefined) | 0.0701
99 | CN(C)S(=O)(=O)CC12CCC(CC1=O)C2(C)C (centres undefined) | -0.67
100 | Cc1ccccc1-n1c(Cn2c(=O)sc3ccccc32)nnc1SCC(=O)N1CCOCC1 | -0.558
101 | O=C(COC(=O)c1cccs1)c1ccc2ccccc2c1 | -0.443
102 | COc1ccc(C(=O)Nc2ccc(Oc3nc(C)nc4sc(-c5ccccc5)cc34)cc2)cc1OC | -0.0336
103 | O=c1c2ccccc2[nH]c(=S)n1CCC1=CCCCC1 | 0.577
104 | COc1ccc(C2C(C(=O)c3sc(C)nc3C)=C(O)C(=O)N2CCN2CCOCC2)cc1 (centres undefined) | 1
105 | Cc1cc(/C=N/n2cnnc2)c(C)n1-c1cccc(Cl)c1 | 0.213
106 | COc1ccccc1N1CCN(Cc2ccc(OC)c3ccccc23)CC1 | -0.309
107 | NNC(=O)c1ccc(COc2ccc3c(c2)CCC3)o1 | -0.212
108 | CCOC(=O)C1CCCN(C(=O)c2ccc(CS(=O)(=O)Cc3ccccc3C)o2)C1 (centres undefined) | 0.059
109 | CCC(=O)Nc1cc(-c2nnc(OC)c3ccccc23)ccc1N1CCOCC1 | -0.0672
